The values that follow come from publication PMC4336329 (PLoS ONE, 2015).

About 14,000 (4.5%) of roughly 310,000 compounds showed an effect of 50% or more. The effect is printed as a negative number. The list shows a part of the results.
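Further: peak tail current of the secondary pulse compared with the same well before compound.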

For the test, the target named is human ether-à-go-go-related gene (hERG) potassium channel (human, UniProt Q12809). Kind of test: primary screen, population patch clamp on CHO cells stably expressing hERG.
human ether-à-go-go-related gene (hERG) potassium channel, sequence (Q12809 whole entry, looked up): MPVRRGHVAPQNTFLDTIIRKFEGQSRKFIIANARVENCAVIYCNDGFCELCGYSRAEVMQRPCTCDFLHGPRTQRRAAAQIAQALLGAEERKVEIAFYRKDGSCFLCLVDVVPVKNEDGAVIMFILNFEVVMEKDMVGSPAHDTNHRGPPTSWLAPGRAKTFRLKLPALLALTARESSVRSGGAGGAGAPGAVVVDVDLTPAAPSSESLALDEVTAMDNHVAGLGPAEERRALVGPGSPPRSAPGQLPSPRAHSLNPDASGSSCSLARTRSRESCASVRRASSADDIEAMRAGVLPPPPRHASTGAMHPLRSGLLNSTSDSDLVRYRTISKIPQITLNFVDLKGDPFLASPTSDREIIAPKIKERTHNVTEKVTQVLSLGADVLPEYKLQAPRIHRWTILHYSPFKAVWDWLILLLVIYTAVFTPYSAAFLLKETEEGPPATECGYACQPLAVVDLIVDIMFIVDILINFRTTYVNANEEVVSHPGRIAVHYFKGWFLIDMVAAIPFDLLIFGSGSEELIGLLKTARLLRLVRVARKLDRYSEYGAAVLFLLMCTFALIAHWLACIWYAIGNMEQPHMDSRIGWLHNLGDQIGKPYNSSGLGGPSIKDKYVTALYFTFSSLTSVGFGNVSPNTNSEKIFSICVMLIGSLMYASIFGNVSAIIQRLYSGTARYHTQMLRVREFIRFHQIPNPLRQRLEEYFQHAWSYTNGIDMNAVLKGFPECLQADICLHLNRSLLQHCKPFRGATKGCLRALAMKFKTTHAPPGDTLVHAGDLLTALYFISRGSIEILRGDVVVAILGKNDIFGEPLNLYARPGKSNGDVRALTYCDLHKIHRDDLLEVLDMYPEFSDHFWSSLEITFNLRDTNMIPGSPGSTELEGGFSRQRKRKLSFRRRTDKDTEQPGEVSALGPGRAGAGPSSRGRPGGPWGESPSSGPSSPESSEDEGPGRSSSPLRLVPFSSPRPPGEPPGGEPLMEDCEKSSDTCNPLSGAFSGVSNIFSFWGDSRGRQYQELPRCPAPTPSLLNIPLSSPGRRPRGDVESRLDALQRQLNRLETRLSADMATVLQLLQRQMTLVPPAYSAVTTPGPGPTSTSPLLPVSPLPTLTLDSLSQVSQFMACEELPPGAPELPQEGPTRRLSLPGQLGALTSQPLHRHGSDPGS
`O=C(OCC(=O)N1CCCCC1)c1cccc(NS(=O)(=O)c2ccccc2)c1`: the “hERG current change (%, negative = inhibition) at 10uM” value is listed as 5.54%.
On to `NC(=O)CC[C@@H]1NC(=O)[C@@H]2CCCN2C(=O)c2cc([N+](=O)[O-])cc(F)c2NCCC[C@@H](C(N)=O)NC1=O`, for which the “hERG current change (%, negative = inhibition) at 10uM” value is on record as -29.4%.
Consider `CCNC(=O)c1ccc2c(c1)S(=O)(=O)c1ccccc1C2=O`, for which the “hERG current change (%, negative = inhibition) at 10uM” value is given as -42.4%.
Consider `Cc1c(=O)n(OCc2cccc(F)c2)c2ccccc2[n+]1[O-]`, for which the “hERG current change (%, negative = inhibition) at 10uM” value is on record as -3.42%.
To `N#Cc1nc(-c2ccc(Cl)cc2)oc1N1CCCCC1` belongs 5.04%; to `COc1ccc2c(c1)c1ncn(CCc3ccccc3)c(=O)c1n2C`, -17.9%.
For the compound `NS(=O)(=O)c1cccnc1Nc1ccc(Cl)c(Cl)c1`, the “hERG current change (%, negative = inhibition) at 10uM” value is -6.54%.
For the compound `CCC(CO)(C(=O)OC1C[N+]2(C)CCC1CC2)c1ccccc1.[I-]` (stereo not shown), the “hERG current change (%, negative = inhibition) at 10uM” value amounted to 13.9%.
As to `CCCCC1(C)Cc2ccccc2C(=S)N1` (stereo not shown), the “hERG current change (%, negative = inhibition) at 10uM” value was found to be 11.6%.
For the compound `COc1cccc(NC(=S)N(CCc2c(C)[nH]c3ccc(C)cc23)Cc2cccs2)c1`, the “hERG current change (%, negative = inhibition) at 10uM” value is given as 10.7%.
As for `COc1ccccc1OCc1cc(C(=O)NCCN2CCCC(O)C2)no1` (stereo not shown), the “hERG current change (%, negative = inhibition) at 10uM” value is on record as -1.14%.
With `COc1ccc(C2(C(=O)Nc3ccc(OC)cc3OC)CCCC2)cc1`, the “hERG current change (%, negative = inhibition) at 10uM” value is 0.491%.
Next, `CCCCn1c(O)c(/C=N/NC(=O)c2ccncc2)c(=O)[nH]c1=S`: 12.4%; `COc1ccc(-c2nn(C)c(=O)[nH]2)cc1`: 19.7%.
In the case of `CC1CCN(C(=O)COc2ccccc2F)CC1`, the “hERG current change (%, negative = inhibition) at 10uM” value was determined as 12.7%.
Turning to `O=C(c1cnsn1)N1CCCC(Nc2ccc(F)c(F)c2)C1` (stereo not shown), the “hERG current change (%, negative = inhibition) at 10uM” value came to 1.04%.
To `O=C(NCc1nnc(SCC(=O)N2CCOCC2)o1)c1c(F)cccc1F` belongs 19.6%.
With `CCn1c(SCc2ccc([N+](=O)[O-])cc2)nnc1C(C)NC(=O)c1ccccc1Br` (stereo not shown), the “hERG current change (%, negative = inhibition) at 10uM” value was -27.6%.
For `Cc1cc(C(=O)COC(=O)c2ccc(O)cc2)c(C)n1CC(F)(F)F`, the “hERG current change (%, negative = inhibition) at 10uM” value is 1.56%.
For `Cc1c(C(=O)C(=O)N2CCN(C)CC2)c2ccccc2n1C`, the “hERG current change (%, negative = inhibition) at 10uM” value turned out to be 3.97%.
To `O=C(CSCc1ccc(Br)cc1)N1CCOCC1` belongs 3.5%; to `CCOc1ccc(N(CC(=O)NC(C)(C)C)C(=O)c2ccco2)cc1`, -1.84%; to `CS(=O)(=O)N(CC(=O)Nc1ccccc1C(=O)N1CCOCC1)c1ccccc1`, 17.7%.
Regarding `COc1ccccc1C1C=C(c2ccc(Cl)cc2)Nc2nc(N3C(=O)CCC3=O)nn21` (stereo not shown), the “hERG current change (%, negative = inhibition) at 10uM” value is listed as -32.8%.
To `COc1ccc(C(=O)NC(=S)N2CCOCC2)cc1Br` belongs 7.39%; to `CCN(CC)S(=O)(=O)c1ccc(N2CCN(S(=O)(=O)c3ccc4c(c3)OCCO4)CC2)nc1`, -1.34%; to `O=C(c1ccc(-n2nc(C(F)(F)F)c3c2CCCC3)cc1)N1CCOCC1`, -4.55%.
`c1ccc(C2CN3CCC2CC3)cc1` (stereo not shown): the “hERG current change (%, negative = inhibition) at 10uM” value is on record as -5.74%.
Take `Cc1ccc(N(C(=O)c2csnn2)C(C(=O)NC2CCCCC2)c2ccncc2)cc1` (stereo not shown): the “hERG current change (%, negative = inhibition) at 10uM” value was -1.71%.
Regarding `CCc1ccccc1NC(=O)c1cccc(NC(=O)/C=C/c2ccco2)c1`, the “hERG current change (%, negative = inhibition) at 10uM” value is on record as -8.22%.
To `COc1ccc(OCCSc2ccc(S(=O)(=O)N3CCCC3)cn2)cc1` belongs -27.2%.
With `O=C(CCc1c[nH]c2ccccc12)OCc1ccc(Br)cc1`, the “hERG current change (%, negative = inhibition) at 10uM” value was found to be 10.2%.
Consider `COc1ccc(N(CC(=O)Nc2ccc3c(c2)OCO3)S(=O)(=O)c2ccc(C)cc2)cc1OC`, for which the “hERG current change (%, negative = inhibition) at 10uM” value came out at 8.47%.
Regarding `CC(C)(C)c1ccc(Cn2cnc(-c3ccc([N+](=O)[O-])cc3)c2)cc1`, the “hERG current change (%, negative = inhibition) at 10uM” value is given as -5.95%.
Next, `CC1(C)CC(=O)C/C(=N\NC(=O)c2cccs2)C1`: 3.15%; `CC(=O)Nc1cccc(NC(=O)Cc2cccs2)c1`: 8.67%; `Cc1cccc(CCNC(=O)C2CCN(S(=O)(=O)c3cccc4nsnc34)CC2)c1`: 1.86%.
As to `O=C(COC(=O)/C=C/c1cccs1)Nc1ccc2ccccc2c1`, the “hERG current change (%, negative = inhibition) at 10uM” value amounted to 7.66%.
As for `COc1ccc(S(=O)(=O)NCCCn2ccnc2)cc1C(C)(C)C`, the “hERG current change (%, negative = inhibition) at 10uM” value is -24.2%.
Turning to `Nc1ccc(O)cc1C(=O)OCC(=O)c1ccc(C2CCCCC2)cc1`, the “hERG current change (%, negative = inhibition) at 10uM” value is listed as 8.51%.
As to `O=C(O)c1ncn(Cc2ccc(Br)cc2)c1C(=O)O`, the “hERG current change (%, negative = inhibition) at 10uM” value worked out at 21.6%.
Consider `CC1CCN(C(=O)CSc2nc3c(c(=O)n(C)c(=O)n3C)n2C)CC1`, for which the “hERG current change (%, negative = inhibition) at 10uM” value came to 10.5%.
On to `C#CCSc1cc(C(F)(F)F)nc(-c2ccccn2)n1`, for which the “hERG current change (%, negative = inhibition) at 10uM” value was -62.9%.
Take `Cc1ccccc1CC(=O)Nc1cc(C(C)(C)C)on1`: the “hERG current change (%, negative = inhibition) at 10uM” value came out at 2.73%.
As to `Cc1onc(-c2c(F)cccc2Cl)c1C(=O)NCCN1CCNC1=O`, the “hERG current change (%, negative = inhibition) at 10uM” value stood at 10.4%.
Next, `COc1ccc(CC2C(=O)N(c3ccccc3)C(=O)N(c3ccccc3)C2=O)c(OC)c1`: 13.1%.
Consider `Cc1c(C(=O)N2CCCCC2)nnn1-c1nonc1N`, for which the “hERG current change (%, negative = inhibition) at 10uM” value is recorded as -3.81%.
To `CCN(CC)CCNc1nc(-c2ccccc2)nnc1C(F)(F)F` belongs -37.1%; to `Cc1ccc(CSCC(=O)N/N=C/c2ccc(OCC(=O)Nc3ccc(C)cc3)cc2)cc1`, 5.5%; to `CNC(=O)C1C2C=CC3(O2)C1C(=O)N(C1CC1)C3C(=O)NCc1ccc(OC)cc1` (stereo not shown), 9.61%.
Turning to `CCOC(=O)c1sc(N(Cc2ccccc2)C(=O)CN2C(=O)CN(C)C2=O)nc1C`, the “hERG current change (%, negative = inhibition) at 10uM” value was -59%.
To `COc1ccc(C(=O)N[C@H]2CCCCNC2=O)cc1OC1CCN(C(C)C)CC1` belongs 15.3%.
For `COc1ccc(NC(=O)C(=O)NCC(=O)Nc2cc(OC)ccc2OC)cc1`, the “hERG current change (%, negative = inhibition) at 10uM” value was 3.44%.
For `Cc1cccc(-n2c(O)c(C=NCc3ccccn3)c3ccccc3c2=O)c1`, the “hERG current change (%, negative = inhibition) at 10uM” value is listed as -60.9%.
Next, `O=C(N[C@@H](Cc1ccccc1)C(=O)NC1CC1)c1ccc(Cl)cc1`: 1.83%; `COc1cc2c(cc1OC)/C(=C/C(=O)c1ccccc1F)NCC2`: -31.7%; `O=C(Nc1c(F)cc(F)cc1Br)c1ccco1`: 0.86%.
Take `CCOc1ccc(CCNC(=O)COn2nnc3ccc(S(=O)(=O)N4CCOCC4)cc32)cc1OCC`: the “hERG current change (%, negative = inhibition) at 10uM” value is recorded as -8.41%.
For `Cc1cccc(Oc2c([N+](=O)[O-])c(=O)n(C)c3ccccc23)c1`, the “hERG current change (%, negative = inhibition) at 10uM” value was -6.73%.
In the case of `O=C(Cc1ccccc1)Nc1ccc(N2CCCC2)cc1`, the “hERG current change (%, negative = inhibition) at 10uM” value was -5.37%.
For `C=CCS/C(N)=N\N=C\c1c(O)ccc2ccccc12`, the “hERG current change (%, negative = inhibition) at 10uM” value came to 7.14%.
As for `Cn1c(CO)cnc1SCC(=O)c1ccc(F)cc1`, the “hERG current change (%, negative = inhibition) at 10uM” value is on record as 16.2%.
`Cc1ccc(S(=O)(=O)N2CCCCC2)cc1C(=O)NCc1ccccn1`: the “hERG current change (%, negative = inhibition) at 10uM” value is on record as 14.4%.
`Cn1cccc1/C=C1\SC(=S)N(NC(=O)c2ccccc2O)C1=O`: the “hERG current change (%, negative = inhibition) at 10uM” value came to 7.87%.
Turning to `CCCOc1ccc(C2/C(=C(/O)c3ccc(F)cc3)C(=O)C(=O)N2CCCN(C)C)cc1` (stereo not shown), the “hERG current change (%, negative = inhibition) at 10uM” value is reported as 15.3%.
Next, `COc1cc(C2N(c3ccc(Cl)c(Cl)c3)C(=O)C3CCCN32)cc(OC)c1OC` (stereo not shown): -4.29%; `COc1cccc(-c2csc(N3CCN(C(=S)Nc4ccccc4)CC3)n2)c1`: -12.4%.
Take `Cc1ccccc1OC(C)C(=O)Nc1ccc(S(=O)(=O)Nc2nccs2)cc1` (stereo not shown): the “hERG current change (%, negative = inhibition) at 10uM” value is recorded as -6.84%.
Turning to `CC1CCc2c(sc3nc(C4CC4)nc(N4CCN(C(=O)c5ccco5)CC4)c23)C1` (stereo not shown), the “hERG current change (%, negative = inhibition) at 10uM” value was -19.2%.
With `COc1ccccc1NS(=O)(=O)c1cc(NC(=O)c2cccs2)ccc1N1CCCCC1`, the “hERG current change (%, negative = inhibition) at 10uM” value is 5.33%.
On to `C[N+]1(C)[C@@H]2CC[C@H]1CC(OC(=O)[C@@H](CO)c1ccccc1)C2.[I-]` (stereo partly shown), for which the “hERG current change (%, negative = inhibition) at 10uM” value came to 23.4%.
On to `Cc1cc(=O)n2[nH]c(N)c(N=Nc3ccccc3F)c2n1`, for which the “hERG current change (%, negative = inhibition) at 10uM” value is -1.94%.
For the compound `Cc1nc2ccc(S(=O)(=O)NC(C(=O)Nc3nccs3)C(C)C)cc2s1` (stereo not shown), the “hERG current change (%, negative = inhibition) at 10uM” value was -0.0763%.
For the compound `Cc1ccc(Oc2ccc(C=O)cn2)cc1`, the “hERG current change (%, negative = inhibition) at 10uM” value worked out at 0.0363%.
`COc1cccc(CN2C(=O)Nc3ccccc3C(=O)N2C(C)(C)C)c1`: the “hERG current change (%, negative = inhibition) at 10uM” value is 4.28%.
Consider `CN1CCN(C(=O)N(c2ccccc2)c2ccccc2)CC1.Cl`, for which the “hERG current change (%, negative = inhibition) at 10uM” value is 11.5%.
On to `COc1cccc(CNc2ccc3[nH]c(=O)[nH]c3c2)c1OCc1ccc(F)cc1`, for which the “hERG current change (%, negative = inhibition) at 10uM” value is 2.63%.
In the case of `N#CCCN(CCC#N)c1nncs1`, the “hERG current change (%, negative = inhibition) at 10uM” value was -6.4%.
In the case of `Cc1ccc2oc(=O)c3cc(C(=O)NCCN4CCc5ccccc5C4)sc3c2c1`, the “hERG current change (%, negative = inhibition) at 10uM” value is -10.8%.
As for `NC(=O)C1(N2CCCCC2)CCN(CC(=O)Nc2ccccc2-c2ccccc2)CC1`, the “hERG current change (%, negative = inhibition) at 10uM” value came to 14.6%.
Next, `CC(C)(C)C1CCC(=O)N(CCOc2ccccc2)CC1` (stereo not shown): -18.5%; `CC(NC(=O)Oc1ccccc1)C(c1cccs1)N1CCOCC1` (stereo not shown): -7.42%.
Turning to `Cc1ccc(NC(=O)CNc2cccc(C)c2C)c(C)c1`, the “hERG current change (%, negative = inhibition) at 10uM” value was 5.53%.
Consider `COC(=O)C1=C(c2ccc(F)cc2OCc2ccccc2)C[C@@H]2CC[C@H]1N2C(=O)NCC1CC1`, for which the “hERG current change (%, negative = inhibition) at 10uM” value is recorded as -51.5%.
Consider `C[N+](C)(C)CCCCCCC(=O)/C=N/O.[I-]`, for which the “hERG current change (%, negative = inhibition) at 10uM” value was determined as 12.1%.
With `CCOc1ccc(CCNC(=O)c2cccs2)cc1OCC`, the “hERG current change (%, negative = inhibition) at 10uM” value is listed as 6.69%.
Turning to `CCCn1nc2cc(C(=O)NC3CCCc4ccccc43)ccc2c1OCC` (stereo not shown), the “hERG current change (%, negative = inhibition) at 10uM” value was -8.93%.
As to `Cc1ccc(-c2nnc(SC(C)C(=O)NCC3CCCO3)nc2-c2ccc(C)cc2)cc1` (stereo not shown), the “hERG current change (%, negative = inhibition) at 10uM” value is reported as -36%.
